Laboratory results: a collection of fitness landscapes (doi:10.1016/j.celrep.2020.107928)
Over roughly 81,000 sequences, “one-hybrid fitness for binding NBS DNA” has its median near -0.1; the highest 2% begin near 0.36. This is one part of the list.

B1: Caulobacter ParB omega fusion; a variant is named by its letters at X, in order, B8GW30 (parent)
chain: MESVVVGEPGMSEGRRGLGRGLSALLGEVDAAPAQAPGEQLGGSREAPIEILQRNPDQPRRTFREEDLEDLSNSIREKGVLQPILVRPSPDTAGEYQIVAGERAWRAAQRAGLKTVPIMVRELDDLAVLEIGIIENVQRADLNVLEEALSYKVLMEKFERTQENIAQTIGKSXSHVANXMRLLXLPDEVQSYLVSGELTAXHARAIAAAADPVALAKQIIEGGLSVRETEALARKAPNLSAGKSKGGRPPRVKDTDTQALESDLSSVLGLDVSIDHRGSTGTLTITYATLEQLDDLCNRLTRGI

Variants of: B1
Assay: one-hybrid fitness for binding NBS DNA (the Noc-binding site; scaled: cognate 1, non-cognate 0); higher = stronger binding
Details: with NBS DNA site
Procedure, shortened: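 In E. coli USO, a HIS3 reporter with its site placed 19 bp from the promoter was used to select Caulobacter ParB variants randomised at four specificity codons. Growth lasted 48 hours at 37°C on histidine-free M9 containing 0.1 mM IPTG and 5 mM 3-AT. Fitness was taken as the log change in variant-to-wild-type read ratio from Illumina sequencing of pre- and post-selection plasmids, rescaled between the non-cognate and cognate sites.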

one-hybrid fitness for binding NBS DNA, 0.203:
RCSH

one-hybrid fitness for binding NBS DNA, 0.334:
TRYT

one-hybrid fitness for binding NBS DNA, 0.473:
QHCR

one-hybrid fitness for binding NBS DNA, 0.247:
QQQY

one-hybrid fitness for binding NBS DNA, 0.333:
QCHH

one-hybrid fitness for binding NBS DNA, 0.255:
GTKR

one-hybrid fitness for binding NBS DNA, 0.635:
QQSR

one-hybrid fitness for binding NBS DNA, ≤ 0.2:
NHDY
MRFN
KGAG
SVWR
CVQT
HFES
QMGP
PGNV
RSDL
HAHM
RTYE
KQCG
SLPC
TEER
NWIS
DMRY
GNRW
KKAL
MQNC
YNMG
KPFV
FPSS
NIRQ
CHAG
RLGL
RYPN
RLCK
RSPF
IRFE
PPGF
KLIT
WVSV
FGAY
RANH
YAIS
MNLR
QPPI
AGIL
HNYW
GNMF
LITP
KHTK
WCVR
RVTA
QPLP
TEHT
LKHG
WVLR
SIIR
RYAY
DTWT
PTKW
TTPF
YESS
HTSN
CNSF
AFVR
QPPA
PHKP
NSNT
EIRG
NMLN
WTNL
RSRD
IDAW
RCRG
YLAS
KALF
CQLA
GDLC
TEVC
GRDG
MEAT
AVPW
VRTN
RQEQ
FHVR
SCLG
ACDT
LKKY
GPLS
QSQE
NYMT
GDVG
NKLV
QSVW
VTLC
MTER
MREL
EDER
STYS
CDIS
VSAP
LDLS
KIKS
SHKC
CPDS
PRTQ
YGLC
HSKC
ARRV
IPLA
TTPL
YERS
TFVR
PTFQ
DQPE
LNKN
MSRM
TIAF
FVRT
DPMD
RWQC
QLRW
RLLQ
WHID
VPFY
YLYM
MSMK
FKKR
TQKE
ANRM
QQTW
CPFS
LRHF
LAAP
KRCV
HRRS
CSKG
SRYR
LAHA
ITPE
ITIG
YFDM
KIPS
VCAW
EYDT
GFRG
RYGK
HCRS
GACC
RPMC
GQDL
FLVV
CPHF
QWVT
RGLK
EVNT
AVQE
KRTD
DAQS
TQAM
NLAT
HTCG
VRNY
ASTT
LNGL
LQYD
HHTV
ANPY
MNGG
MLIC
FEYF
GFHI
AHRP
QTCQ
ATLQ
RICL
HVHD
YCNS
TKDL
LDGI
QNKK
RPTN
CKSG
SDKV
CSLA
SGIG
PRAF
CVSV
RDEK
SQAT
VSRL
FTRA
FSRE
RNLK
SWAM

one-hybrid fitness for binding NBS DNA, 0.424:
QMKV
